# Measurements published in paper PMC4336329 (PLoS ONE, 2015).
# About 14,000 (4.5%) of roughly 310,000 compounds showed an effect of 50% or more. The effect is printed as a negative number. The list shows a part of the results.
# Target: human ether-à-go-go-related gene (hERG) potassium channel (human, UniProt Q12809)
# Test: primary screen, population patch clamp on CHO cells stably expressing hERG
# 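Note: peak tail current of the secondary pulse compared with the same well before compound.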
# human ether-à-go-go-related gene (hERG) potassium channel, sequence (Q12809 whole entry, looked up): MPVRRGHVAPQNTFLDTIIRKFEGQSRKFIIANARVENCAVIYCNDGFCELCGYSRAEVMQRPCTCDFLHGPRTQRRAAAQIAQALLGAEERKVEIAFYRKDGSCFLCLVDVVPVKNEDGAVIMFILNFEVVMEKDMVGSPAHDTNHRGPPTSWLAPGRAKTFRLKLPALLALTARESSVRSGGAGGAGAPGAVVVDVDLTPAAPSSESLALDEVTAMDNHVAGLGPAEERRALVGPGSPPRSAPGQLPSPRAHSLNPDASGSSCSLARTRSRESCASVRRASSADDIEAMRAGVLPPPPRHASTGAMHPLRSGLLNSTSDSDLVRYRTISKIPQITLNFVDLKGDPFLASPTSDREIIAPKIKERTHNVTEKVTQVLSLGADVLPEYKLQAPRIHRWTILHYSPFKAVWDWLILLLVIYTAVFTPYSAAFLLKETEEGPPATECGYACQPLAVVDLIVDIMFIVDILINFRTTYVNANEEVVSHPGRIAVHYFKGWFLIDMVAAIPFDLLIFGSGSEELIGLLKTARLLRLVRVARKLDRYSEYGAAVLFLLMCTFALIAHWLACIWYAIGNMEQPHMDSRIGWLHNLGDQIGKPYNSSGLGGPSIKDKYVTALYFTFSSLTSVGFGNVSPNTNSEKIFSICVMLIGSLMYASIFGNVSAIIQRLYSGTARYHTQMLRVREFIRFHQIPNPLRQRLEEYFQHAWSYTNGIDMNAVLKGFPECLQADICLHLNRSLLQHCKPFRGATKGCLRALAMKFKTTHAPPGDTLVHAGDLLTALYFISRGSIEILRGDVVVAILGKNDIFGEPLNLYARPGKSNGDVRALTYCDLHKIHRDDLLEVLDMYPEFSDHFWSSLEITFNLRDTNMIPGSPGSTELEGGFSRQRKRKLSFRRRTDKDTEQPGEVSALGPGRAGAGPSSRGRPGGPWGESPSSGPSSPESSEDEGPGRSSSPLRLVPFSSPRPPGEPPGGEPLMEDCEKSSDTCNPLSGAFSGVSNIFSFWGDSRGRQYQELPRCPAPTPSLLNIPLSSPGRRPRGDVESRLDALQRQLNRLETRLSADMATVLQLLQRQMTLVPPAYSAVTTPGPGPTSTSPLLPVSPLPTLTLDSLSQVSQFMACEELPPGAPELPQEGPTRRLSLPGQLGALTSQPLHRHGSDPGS
row,Compound,"hERG current change (%, negative = inhibition) at 10uM [%]"
1,O=c1[nH]c(NC2CCCCC2)c([N+](=O)[O-])c(=O)[nH]1,14.7
2,COc1ccc(OCCSc2ncc(CO)n2C)cc1,12.4
3,O=C1c2ccccc2C(=O)N1CCSc1ccccc1,-14.5
4,CCOC(=O)N1CCc2c(sc3nc(SC(C)C)n(N)c(=O)c23)C1,-20.9
5,CC(OC(=O)CCCc1c[nH]c2ccccc12)C(=O)Nc1ccc(S(N)(=O)=O)cc1 (stereo not drawn),-19.8
6,OCC1(CC2CCCCO2)CCN(Cc2ccccc2-c2ccco2)CC1 (stereo not drawn),-27.4
7,COc1ccccc1NS(=O)(=O)c1cccc(C(=O)NNC(=O)c2ccc(=O)[nH]c2)c1,1.85
8,CC(C)(C)c1ccc(C(=O)NCC(=O)N2CCCC2)cc1,11.4
9,CC(C)Nc1nc(-c2ccccc2)nc(-n2ccnc2)n1,-0.0673
10,Cc1nc(SCCOc2ccccc2)[nH]c(=O)c1Cc1ccccc1,10
11,Cc1ccc(NS(=O)(=O)c2ccc(-c3csc(C)n3)s2)c(C)c1,16
12,COc1cccc(-n2c(O)c(C=NCc3ccc4c(c3)OCO4)c(=O)[nH]c2=O)c1,2.39
13,CC(=C/c1ccccc1)/C=N/n1c(C)n[nH]c1=S,14.1
14,CCOc1cc(-c2cn(S(=O)(=O)c3cccc4nsnc34)nc2N)cc(OCC)c1OCC,0.719
15,N/C(=N\OC(=O)c1ccc(Br)o1)c1cccnc1,11.7
16,CN(C(=O)COC(=O)CN1C(=O)c2cccc([N+](=O)[O-])c2C1=O)c1ccccc1,3.54
17,CCC(c1nnnn1CS(=O)(=O)c1ccc(C)cc1)N1CCN(c2nc3ccccc3s2)CC1 (stereo not drawn),-4.38
18,Clc1ccc(-c2nnc(-c3ccccc3)o2)c(Cl)c1,-7.78
19,CN(Cc1ccccc1)C(=O)CN1CCCC1=O,0.755
20,Cc1noc(C(=O)Nc2ccc(C#N)cc2)c1Cl,15
21,COc1ccc(-c2csc(N3CCC(c4ccccc4)C3)n2)cc1 (stereo not drawn),12.8
22,CC(C)c1ccccc1NC(=S)NCCCn1ccnc1,15

row,Compound,"hERG current change (%, negative = inhibition) at 10uM [%]"
1,COc1ccc(/C=C/C(=O)c2ccc(OC)cc2OC)cc1,-10.9
2,COCc1cc(=O)[nH]c(/N=C(\N)Nc2ccc(C)cc2C)n1,15.3
3,Clc1cccc(Cl)c1-c1nnc2cccc(Cl)n12,-8
4,CC(=O)c1ccccc1OCC(=O)Nc1cccc(S(=O)(=O)N2CCCC2)c1,5.47
5,Cc1cc(C)cc(-n2nnnc2-c2cn(C)nc2C(F)(F)F)c1,-3.11
6,COc1ccc2c(c1)CCCC21NC(=O)N(CC(=O)c2cc(F)ccc2F)C1=O (stereo not drawn),-7.18
7,O=C1[C@H]2[C@H]3[C@H](O)[C@H](O)C/C(=N\OC[C@@H](O)COCc4ccco4)[C@@H]3CC[C@H]2C(=O)N1c1ccc(F)cc1F,13.1
8,O=C(CSc1ccccc1)Nc1cc(S(=O)(=O)N2CCOCC2)ccc1N1CCOCC1,14.5
9,Cc1nc2ccccc2nc1CSc1nnc(N)s1,-4.13
10,CCCn1c(=O)n(C)c(=O)c2c(SCC(=O)NC34CC5CC(CC(C5)C3)C4)nc(CC(C)C)nc21,8.5
11,OCCC1CN(Cc2cccn2-c2ncccn2)CCN1Cc1ccc(F)cc1 (stereo not drawn),-73.7
12,COC(=O)c1cc(-c2ccccc2)sc1NC(=O)CN1C(=O)c2ccccc2C1=O,15.9
13,C=CCNC(=O)NC(=O)COC(=O)c1nc2nccc(C)n2n1,17.8
14,Cc1cccc(N2CCN(C(c3ccc(N(C)C)cc3)c3nnnn3C(C)(C)C)CC2)c1C (stereo not drawn),-10.8
15,Cc1ccc(NC(=O)CSc2nnc(NC(=O)c3ccc(S(=O)(=O)N4CCOCC4)cc3)s2)cc1,13
16,CCOc1ccccc1NC(=S)N1CCN(c2nc(-c3cccc(OC)c3)cs2)CC1,32
17,O=C(C1CCN(c2ncnc3c2nc2n3CCCCC2)CC1)N1CCN(c2cccc(Cl)c2)CC1,-36.7
18,Cn1cc(/C(Cc2ccccc2)=N\O)c2ccccc21,4.78
19,COc1ccc2c(CC(=O)Nc3cccc(S(=O)(=O)N4CCOCC4)c3)coc2c1,-32.4
20,Cc1nc(C(=O)NNC(=O)c2ccccc2)c(C(F)(F)F)o1,8.9
21,C(=N\Nc1nncc2ccccc12)/c1ccccc1,1.52
22,COc1ccc(C(CNC(=O)C(=O)NC2CCCC2)N2CCN(C)CC2)cc1 (stereo not drawn),-45.9

row,Compound,"hERG current change (%, negative = inhibition) at 10uM [%]"
1,COc1ccc(Cl)cc1NS(=O)(=O)c1cccc(C(=O)NCC(c2ccco2)N2CCCC2)c1 (stereo not drawn),-34
2,COc1ccccc1-n1cnnc1SCC(=O)Nc1cccc(S(N)(=O)=O)c1,15.9
3,COc1ccc(-c2c(C)c3cc(O)ccc3oc2=O)cc1,6.67
4,Cc1ccc2c(Cl)cc(Cl)c(OCC(=O)Nc3cccc(S(=O)(=O)N(C)C)c3)c2n1,-0.285
5,CC(C)(C)c1ccc(C(=O)C2CCCN(C(=O)CCn3cncn3)C2)cc1 (stereo not drawn),-28.6
6,COc1ccccc1C(=O)C1CCCN(C(=O)CSc2ccccn2)C1 (stereo not drawn),-23
7,COc1ccnc(Oc2ccccc2)c1C(N)=O,20.2
8,COC(=O)c1cc(C(=O)c2ccc(C(C)(C)C)cc2)c[nH]1,0.533
9,O=C(Nc1ccccc1O)c1cccc(S(=O)(=O)Nc2ccccc2O)c1,8.81
10,CCN(CC)S(=O)(=O)c1cccc(C(=O)N/N=C2\CCCC(=O)C2)c1,-1.63
11,Oc1c(CN2CCN(c3ccccc3)CC2)cc(Br)c2cccnc12,7.1
12,Cc1cc(C)cc(N2C(=O)NC(=O)/C(=C\c3cc(C)n(C)c3C)C2=O)c1,6.86
13,Cc1cc(C)c(S(=O)(=O)N2CCN(C)CC2)c(C)c1,10.5
14,CCOC(=O)C1=C(C)NC(=O)NC1c1ccc(OC(=O)c2ccco2)cc1 (stereo not drawn),-2.08
15,COc1ccccc1NC(=O)C(=O)N/N=C(\C)CC(=O)Nc1ccc(OCc2ccccc2)cc1,3.64
16,CCN(CCNC(=O)Cn1c(=O)sc2ccccc21)c1ccccc1,-15.5
17,Cc1nn(Cc2c(F)c(F)c(F)c(F)c2F)c(C)c1NC(=O)c1nn(C)cc1Br,11.1
18,O=C(c1cccc(Br)c1)N1CCN(S(=O)(=O)N2CCOCC2)CC1,-40.6
19,Cc1n[nH]c(C)c1C(=O)CC1(O)C(=O)N(CCc2ccccc2)c2ccc(Br)cc21 (stereo not drawn),12.8
20,O=C(NCc1ccc2c(c1)OCO2)c1cccc(N2CCCC2=O)c1,-0.598
21,Cc1ccc(-c2nn3c(C)nnc3c3ccccc23)cc1S(=O)(=O)NC(C)c1ccccc1 (stereo not drawn),-50.8
22,O=C(COc1cccnc1[N+](=O)[O-])Nc1ccc(S(=O)(=O)N2CCOCC2)cc1,16.2

row,Compound,"hERG current change (%, negative = inhibition) at 10uM [%]"
1,O=C(Nc1ccccc1)/C(=C/c1ccccc1)NC(=O)c1ccco1,13.4
2,O=C(O)CCC(=O)Nc1sc2c(c1C(=O)NCc1ccccc1)CCCC2,2.8
3,CC1CCN(CCCOc2ccc(Cl)cc2Br)CC1,-76.3
4,COc1cccc(C(=O)NC23CC4CC(CC(C4)C2)C3)c1,2.17
5,NC(=O)C(=O)NCCCN1CCOCC1,29.8
6,CCOC(=O)C1(Cc2cccc(Cl)c2)CCCN(C(=O)c2cc(C)[nH]n2)C1 (stereo not drawn),-25.2
7,COc1cccc2[nH]c3c(N4CCCCC4)ncnc3c12,-14.3
8,CCC(CO)Oc1cc(NCc2ccccc2Cl)c2ncn(C(C)C)c2c1 (stereo not drawn),-14.8
9,CC1(C)CC(=O)CC2(C1)NCC(c1ccccc1Cl)c1c2[nH]c2ccccc12.Cl (stereo not drawn),-51.4
10,CCOc1ccc(S(=O)(=O)Nc2nc3ccccc3nc2-n2ccc(=NC(=O)c3ccccc3C)cc2)cc1,5.75
11,CCNc1nc(NC(C)C)nc(N(C#N)Cc2ccccc2)n1,-22.3
12,CCOc1ccc(OCC)c(NC(=O)CSc2nnnn2CC)c1,-12.8
13,COc1ccc(/C=N/NC(C)(C)C)c(OC)c1.Cl,12.3
14,Cc1ccc2cc(CN(Cc3ccc4c(c3)OCO4)Cc3nnnn3Cc3ccco3)c(=O)[nH]c2c1,-39.5
15,Cc1ccc(C2(C)CC(C)(C)N(C(=O)CSc3nnc(C)s3)c3ccccc32)cc1 (stereo not drawn),4.85
16,COc1cc(C(=O)OC2C[C@H]3CC[C@@H](C2)N3)ccc1O (stereo partly drawn),-2.71
17,O=C(Nc1ccc(Br)cc1)C1CCN(c2cnccn2)CC1,2.63
18,O=C1NC(=O)c2cc(NC(=O)C3CCCO3)ccc21 (stereo not drawn),-15.8
19,O=C(O)c1ccc(Oc2c(C(F)(F)F)oc3cc(O)ccc3c2=O)cc1,17.1
20,Nc1ccccc1C#CCCCCO,9.32
21,CCNc1nc2[nH]c(=O)c3c(c2s1)OC(N)=C(C#N)C3c1cccs1 (stereo not drawn),1.8
